Laboratory results published in the supplement of paper PMC4967469.
By IC50 is meant the dose at which the fit gives 50% viability; a limit (>, <) means that the fit lies beyond the doses tested. The AUC spans the tested range (256-fold, ending at the top dose) of the same fit; it is 1 without any effect and falls as sensitivity rises. A top dose marked as inferred comes from the curve model; the source does not state it. For some assays here: Drugs with an entry number were screened twice under separate entries, and the two screens often disagree.

Key:
Test in all cases: Viability of human cancer cell lines after 72 h of drug (GDSC screen)
XMD8-85 = compound: COc1cc(N2CCN(C)CC2)ccc1Nc1ncc2c(n1)N(C)c1ccccc1C(=O)N2C [XMD8-85]; conditions: top dose 8 µM; top dose inferred
Protocol: (§1)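 Human cancer cell lines in 384-well plates, medium with 10% serum, drug for 72 h over a 256-fold dose range (nine 2-fold or five 4-fold steps up to the top dose). Adherent lines were fixed and stained with the nucleic acid dye Syto60, suspension lines read with resazurin; signal relative to control wells, capped at 0 and 100%. One two-parameter sigmoid per drug and line, fitted in a mixed model over all curves with the slope shared within a line.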

BMS-536924 = compound: Cc1cc(N2CCOCC2)cc2[nH]c(-c3c(NC[C@@H](O)c4cccc(Cl)c4)cc[nH]c3=O)nc12 [BMS-536924]
Protocol: as §1

SB-525334 = compound: Cc1cccc(-c2[nH]c(C(C)(C)C)nc2-c2ccc3nccnc3c2)n1 [SB-525334]; conditions: top dose 20 µM; top dose inferred
Protocol: as §1

VX-702 = compound: NC(=O)c1ccc(N(C(N)=O)c2c(F)cccc2F)nc1-c1ccc(F)cc1F [VX-702]; conditions: top dose 2 µM; top dose inferred
Protocol: as §1

CGP-082996 (CINK4) = compound: CCNc1cc(NC2CCC(O)CC2)nc(Nc2ccc3c(ccn3Cc3ccccc3)c2)n1 [CGP-082996 (CINK4)]; conditions: top dose 5.12 µM; top dose inferred
Protocol: as §1

BIRB 0796 = compound: Cc1ccc(-n2nc(C(C)(C)C)cc2NC(=O)Nc2ccc(OCCN3CCOCC3)c3ccccc23)cc1 [BIRB 0796]; conditions: top dose 10 µM; top dose inferred
Protocol: as §1

Shikonin = compound: CC(C)=CC[C@@H](O)C1=CC(=O)c2c(O)ccc(O)c2C1=O [Shikonin]; conditions: top dose 16 µM; top dose inferred
Protocol: as §1

Wee1 inhibitor 681640 = compound: O=C1NC(=O)c2c1c(-c1ccccc1Cl)cc1[nH]c3ccc(O)cc3c21 [Wee1 inhibitor 681640]; conditions: top dose 2 µM; top dose inferred
Protocol: as §1

HG-5-113-01 = compound: CNC(=O)c1ccc(Nc2cc(Nc3ccccc3S(=O)(=O)C(C)C)c3cc[nH]c3n2)nc1 [HG-5-113-01]; conditions: top dose 10 µM; top dose inferred
Protocol: as §1

Olaparib = compound: O=C(c1cc(Cc2n[nH]c(=O)c3ccccc23)ccc1F)N1CCN(C(=O)C2CC2)CC1 [Olaparib]
Protocol: as §1

A-770041 = compound: COc1cc(-c2nn([C@H]3CC[C@H](N4CCN(C(C)=O)CC4)CC3)c3ncnc(N)c23)ccc1NC(=O)c1cc2ccccc2n1C [A-770041]; conditions: top dose 5.12 µM; top dose inferred
Protocol: as §1

[1] = top dose 4 µM, screen: GDSC drug entry 1091, top dose inferred
[2] = top dose 5.12 µM, screen: GDSC drug entry 62
[3] = top dose 5 µM, screen: GDSC drug entry 1017, top dose inferred
[4] = top dose 10 µM, screen: GDSC drug entry 1495

Cell Line	AUC (XMD8-85)	IC50 (XMD8-85) [µM]	AUC (BMS-536924; [1])	IC50 (BMS-536924; [1]) [µM]	AUC (BMS-536924; [2])	IC50 (BMS-536924; [2]) [µM]	AUC (SB-525334)	IC50 (SB-525334) [µM]	AUC (VX-702)	IC50 (VX-702) [µM]	AUC (CGP-082996 (CINK4))	IC50 (CGP-082996 (CINK4)) [µM]	AUC (BIRB 0796)	IC50 (BIRB 0796) [µM]	AUC (Shikonin)	IC50 (Shikonin) [µM]	AUC (Wee1 inhibitor 681640)	IC50 (Wee1 inhibitor 681640) [µM]	AUC (HG-5-113-01)	IC50 (HG-5-113-01) [µM]	AUC (Olaparib; [3])	IC50 (Olaparib; [3]) [µM]	AUC (Olaparib; [4])	IC50 (Olaparib; [4]) [µM]	AUC (A-770041)	IC50 (A-770041) [µM]
Daudi (Burkitt lymphoma, suspension)	0.889	7.06	0.856	2.59	0.929	> 5.12	0.911	> 20	0.988	> 2	0.832	2.7	0.989	> 10	0.613	1.95	0.987	> 2	0.703	2.13	0.986	> 5	0.94	> 10	0.694	1.03
EC-GI-10 (oesophagus, adherent)	0.989	> 8	0.974	> 4	0.989	> 5.12	0.982	> 20	0.988	> 2	0.989	> 5.12	0.96	> 10	0.95	> 16	0.989	> 2	0.706	2.37	0.988	> 5	0.937	> 10	0.989	> 5.12
ES1 (Ewing sarcoma, adherent)	0.959	> 8	0.683	0.805	0.708	1.22	0.819	11.1	0.985	> 2	0.973	> 5.12	0.945	> 10	0.41	0.569	0.965	> 2	0.643	1.54	0.813	2.64	0.659	1.71	0.981	> 5.12
ES4 (Ewing sarcoma, adherent)	0.921	> 8	0.854	3.92	0.593	0.601	0.548	1.73	0.965	> 2	0.92	> 5.12	0.975	> 10	0.568	1.57	0.799	1.12	0.702	2.54	0.874	> 5	0.691	2.35	0.967	> 5.12
ES5 (Ewing sarcoma, adherent)	0.874	> 8	0.709	1.07	0.949	> 5.12	0.861	> 20	0.964	> 2	0.978	> 5.12	0.951	> 10	0.63	2.42	0.867	> 2	0.637	1.58	0.822	3.52	0.858	> 10	0.981	> 5.12
ES6 (Ewing sarcoma, adherent)	0.865	> 8	0.922	> 4	0.493	0.306	0.941	> 20	0.982	> 2	0.864	> 5.12	0.94	> 10	0.679	3.58	0.976	> 2	0.795	5.92	0.982	> 5	0.963	> 10	0.653	0.945
ES7 (Ewing sarcoma, adherent)	0.898	> 8	0.922	> 4	0.954	> 5.12	0.805	10.4	0.975	> 2	0.938	> 5.12	0.957	> 10	0.397	0.517	0.902	> 2	0.537	0.789	0.873	> 5	0.664	1.81	0.954	> 5.12
ES-2 (ovary, adherent)	0.986	> 8	0.99	> 4	0.98	> 5.12	0.925	> 20	0.99	> 2	0.988	> 5.12	0.959	> 10	0.597	1.78	0.922	> 2	0.955	> 10	0.988	> 5	0.976	> 10	0.991	> 5.12
ETK-1 (biliary tract, adherent)	0.778	3.69	0.878	> 4	0.372	0.135	0.841	16.7	0.957	> 2	0.543	0.426	0.982	> 10	0.569	1.58	0.946	> 2	0.777	4.57	0.91	> 5	0.89	> 10	0.48	0.279
EVSA-T (breast, adherent)	0.937	> 8	0.934	> 4	0.96	> 5.12	0.819	9.38	0.991	> 2	0.916	> 5.12	0.926	> 10	0.352	0.415	0.981	> 2	0.825	4.91	0.991	> 5	0.946	> 10	0.917	> 5.12
